The results in this text go back to PMC4336329 (PLoS ONE, 2015).

The structures appear in SMILES notation. Out of some 310,000 compounds screened, about 14,000 (4.5%) showed an effect of 50% or more. The effect is printed as a negative number. The list shows a part of the results.
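Also: peak tail current of the secondary pulse compared with the same well before compound.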

Sequence of human ether-à-go-go-related gene (hERG) potassium channel (Q12809 whole entry, looked up): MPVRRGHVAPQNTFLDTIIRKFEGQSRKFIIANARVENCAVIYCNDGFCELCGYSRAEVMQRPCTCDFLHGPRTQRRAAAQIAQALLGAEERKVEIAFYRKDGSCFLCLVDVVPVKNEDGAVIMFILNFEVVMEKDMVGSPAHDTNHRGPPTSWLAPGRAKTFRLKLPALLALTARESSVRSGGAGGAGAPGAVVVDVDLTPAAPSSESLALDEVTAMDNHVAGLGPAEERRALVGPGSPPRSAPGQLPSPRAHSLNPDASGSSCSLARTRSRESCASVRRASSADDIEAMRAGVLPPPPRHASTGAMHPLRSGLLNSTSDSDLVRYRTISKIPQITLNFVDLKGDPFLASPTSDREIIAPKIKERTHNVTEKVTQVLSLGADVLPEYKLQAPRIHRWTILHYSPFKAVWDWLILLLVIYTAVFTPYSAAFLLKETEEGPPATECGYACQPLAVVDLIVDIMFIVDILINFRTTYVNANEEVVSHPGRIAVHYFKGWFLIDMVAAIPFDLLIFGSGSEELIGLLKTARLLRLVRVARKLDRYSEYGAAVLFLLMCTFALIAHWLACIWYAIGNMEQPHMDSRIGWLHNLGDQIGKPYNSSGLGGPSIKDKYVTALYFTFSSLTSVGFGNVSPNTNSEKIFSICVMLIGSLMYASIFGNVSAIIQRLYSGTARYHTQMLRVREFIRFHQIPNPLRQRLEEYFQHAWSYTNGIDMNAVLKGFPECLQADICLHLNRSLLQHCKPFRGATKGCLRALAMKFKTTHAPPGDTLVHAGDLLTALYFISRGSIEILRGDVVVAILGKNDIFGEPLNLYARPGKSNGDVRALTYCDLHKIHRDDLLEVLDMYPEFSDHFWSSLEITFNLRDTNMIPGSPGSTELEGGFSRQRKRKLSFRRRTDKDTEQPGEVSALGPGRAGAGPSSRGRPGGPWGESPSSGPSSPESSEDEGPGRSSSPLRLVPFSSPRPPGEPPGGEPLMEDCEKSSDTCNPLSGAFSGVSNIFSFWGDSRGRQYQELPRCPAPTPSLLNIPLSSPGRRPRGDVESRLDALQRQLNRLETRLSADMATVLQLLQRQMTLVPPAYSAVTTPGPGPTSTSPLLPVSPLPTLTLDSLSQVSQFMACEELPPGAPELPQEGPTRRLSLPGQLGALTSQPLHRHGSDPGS

This experiment addresses human ether-à-go-go-related gene (hERG) potassium channel (human, UniProt Q12809). Description: primary screen, population patch clamp on CHO cells stably expressing hERG.
Consider `S=C(NCc1ccccc1)N1CCN(c2ccccc2)CC1`, for which the “hERG current change (%, negative = inhibition) at 10uM” value is 20.9%. Next, `COc1cc(OC)cc(-n2c3nc4ccccc4nc3c3c(=O)n(CC4CCCO4)cnc32)c1` (centres unmarked): 6.58%. The figure for `O=C(Nc1ccc2c(c1)OCCO2)c1ccc(Br)s1` is -1.3%; for `COc1cc(OC)cc(C(=O)N2CCN(S(=O)(=O)c3ccc(Cl)s3)CC2)c1` it is -43.5%; for `CC(=O)c1cccc(OCCCOc2cccc3cccnc23)c1` it is -15.5%.

With `CC(C)[C@@H](C(=O)N1CCN(Cc2ccc3c(c2)OCO3)CC1)n1nnc2ccccc2c1=O`, the “hERG current change (%, negative = inhibition) at 10uM” value is on record as -14.4%. With `COc1cc(/C=N/n2cnnc2)ccc1Oc1nc(Cl)ncc1F`, the “hERG current change (%, negative = inhibition) at 10uM” value was -24.3%. With `Cc1[nH]n(C(C)(C)C)c(=O)c1Sc1ccccc1`, the “hERG current change (%, negative = inhibition) at 10uM” value is 5.7%. Next, `Cc1cc(C(=O)NC2CCCc3ccccc32)no1` (centres unmarked): 3.63%; `COc1ccc(CCN(C)C2CCCN(S(=O)(=O)C(C)C)C2)cc1OC` (centres unmarked): -20.2%; `O=C(Cc1ccccc1)NCC(=O)N/N=C/c1cccnc1`: 14.2%. As for `Cc1[nH][nH]c(=O)c1C(c1c(C)[nH][nH]c1=O)c1cn(Cc2cccc3ccccc23)c2ccccc12`, the “hERG current change (%, negative = inhibition) at 10uM” value is 9.8%.

`O=S(=O)(NCCOc1ccc(F)cc1)c1ccc2c(c1)OCCO2`: the “hERG current change (%, negative = inhibition) at 10uM” value is listed as -18.4%.

Regarding `COc1cc(/C=N/Nc2ccc(C(=O)O)cc2)ccc1O`, the “hERG current change (%, negative = inhibition) at 10uM” value is 7.29%.

As to `Cc1ccc(N(C(=O)c2ccn[nH]2)C(C(=O)NC2CCCC2)c2cccs2)cc1` (centres unmarked), the “hERG current change (%, negative = inhibition) at 10uM” value is 19.6%.

Turning to `CCOc1ccc2nc(Cl)c(C3CC(c4ccccc4)=NN3C(=O)c3cccs3)cc2c1` (centres unmarked), the “hERG current change (%, negative = inhibition) at 10uM” value was found to be 10.2%. Next, `CCCc1ccc(C(C)NC(=S)NC2CCCCC2)cc1` (centres unmarked): 8.67%; `O=C(Nn1c(C2CCCCC2)nc2ccccc2c1=O)c1cc(Cl)ccc1[N+](=O)[O-]`: 1.97%.

Regarding `CCC(CO)Oc1cc(NCc2ccc(OC)cc2)c2ncn(C(C)C)c2c1` (centres unmarked), the “hERG current change (%, negative = inhibition) at 10uM” value was -16.3%.

As for `O=C(NC1CCCCC1)NC1CCN(S(=O)(=O)c2ccc3c(c2)OCCO3)CC1`, the “hERG current change (%, negative = inhibition) at 10uM” value was 5.52%.

For the compound `CCCCOC(=O)c1ccc(OC(=O)N2CCOCC2)cc1`, the “hERG current change (%, negative = inhibition) at 10uM” value is on record as -28.6%. Consider `CN(CC(=O)Nc1c(Cl)cccc1Cl)C(=O)C1CSC2(C)CCC(=O)N12` (centres unmarked), for which the “hERG current change (%, negative = inhibition) at 10uM” value came out at 4.5%. Next, `COc1cc(NC(=O)c2cc(C)on2)cc(OC)c1OC`: 2.39%. Next, `Cc1c(CNC(=O)c2c([N+](=O)[O-])cnn2C)cnn1C`: 3.81%; `CCOC(=O)c1c(S(=O)(=O)NCC(=O)Nc2ccccc2OC)c(C)n(C)c1C`: -21.2%.

As to `N/C(=N\OC(=O)CCCOc1ccccc1)c1cccc(Br)c1`, the “hERG current change (%, negative = inhibition) at 10uM” value is recorded as 36.2%. For the compound `CC(=O)Oc1cc2c(cc1Cl)C(c1cccs1)CC1(CC(C)(C)NC(=S)N1)O2` (centres unmarked), the “hERG current change (%, negative = inhibition) at 10uM” value came to 9.77%. The figure for `CCN(CC)C(=O)CSc1nnc(-c2cccnc2)n1Cc1ccccc1` is -8.04%; for `CCN(CC)P(=O)(Nc1ccc(SC(F)F)cc1)c1ccc(N(C)C)cc1NC(=O)c1ccco1` (centres unmarked) it is -4.39%. Next, `O=C(Cn1cnc2ccccc21)c1ccccc1`: 14.3%; `O=C(NCc1ccco1)C(=O)NCC1OCCN1C(=O)c1ccc(Cl)cc1` (centres unmarked): -4.21%; `CC(Oc1ccc2c(c1)c1ccnc3c4ccccc4c(=O)n2c13)C(=O)NCCN1CCOCC1` (centres unmarked): -6.87%. The figure for `Cc1cc(NNC(=O)c2cccc(C(F)(F)F)c2)nc2c1c(C)nn2C` is 10.3%; for `CCn1nnnc1SCC(=O)N1c2ccccc2Sc2ccccc21` it is 4.99%; for `CCOC(=O)c1c(C)[nH]c(C)c1S(=O)(=O)N(C)CC(=O)N(C)Cc1ccccc1` it is 23%. With `CN1CC(C(=O)c2cccc(C(F)(F)F)c2)C(c2ccc(Cl)cc2)C1` (centres unmarked), the “hERG current change (%, negative = inhibition) at 10uM” value is recorded as -20%. For the compound `Cc1ccc(CNc2nc3ccccc3n3nnnc23)cc1`, the “hERG current change (%, negative = inhibition) at 10uM” value came to 10.6%. As to `O=C(Nc1cccc(C(=O)Nc2ccccc2C(=O)O)c1)c1cccc(Cl)c1`, the “hERG current change (%, negative = inhibition) at 10uM” value is 9.97%. Next, `COc1cc(C=O)cc(Br)c1OCC(N)=O`: 10.1%; `Cc1nc2ccccc2n1CC(=O)N1CC(=O)Nc2ccccc21`: 15.5%; `COC(=O)c1sccc1Oc1ccc(F)cc1[N+](=O)[O-]`: 1.74%. The figure for `COc1cc(C(=O)Nc2ccc(C)c(S(=O)(=O)N(C)C)c2)ccc1OCC(=O)N1CCOCC1` is 2.66%; for `Cc1ccc(C(=O)Nc2ncc(C)s2)o1` it is 0.552%. As for `Cc1ccc(-c2nn(-c3ccccc3)cc2C(=O)NCC(c2cccs2)N2CCOCC2)cc1` (centres unmarked), the “hERG current change (%, negative = inhibition) at 10uM” value is given as -5.08%.
